Experimental data from paper PMC12136788.
The other results are listed elsewhere or left out.

T1: UNK ZnF1-3 (human, UniProt Q9C0B0 31-174)
T1 sequence: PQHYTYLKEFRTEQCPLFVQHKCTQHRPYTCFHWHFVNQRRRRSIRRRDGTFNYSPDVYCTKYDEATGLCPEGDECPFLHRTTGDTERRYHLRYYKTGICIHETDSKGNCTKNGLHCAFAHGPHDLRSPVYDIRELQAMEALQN

B1: chr1:130485734:130485735:-_ENSMUSG00000045382_ENSMUST00000052172|mus_mus|mus_mus_mus_hu_False|38_68 (ssRNA)
RNA: GGGAGUUCUACAGUCCGACGAUCGAUGAAGGAGUCGAUGCUGAUCCCAAUGUAGUAAGGCAGCCAACAGGCAAAGAAAGCCAGGAUGAGGAUGACUGUCGUCUUGAGGGCCUUGCGCUUCUGGUGGCCCUUGGAGUGUGACAGCAACAGAGGAUUGAGCAUCA
B2: 125748651_125751648_737_CDS_ENSG00000011454_ENST00000373647|human|control|control (ssRNA)
RNA: GGGAGUUCUACAGUCCGACGAUCCCCUCUGACACAGAAGAGGAUUUUGUAGAUAGGGUAGUUUGCUAUUUCAGUGUUUGUCUGAGGAUCUAAGAGUCUCACAAUUCCUUCAGACACAUUCGGCACUGAAAGGGUAACAUCUAGCAACAGAGGAUUGAGCAUCA
B3: chr12:53620312:53620313:+_ENSMUSG00000035133_ENSMUST00000110725|mus_hu|FALSE|FALSE (ssRNA)
RNA: GGGAGUUCUACAGUCCGACGAUCAGGUUUAAUAGGUGGAGGCACUUUAUGGUUGCGUUCAUGGUCAUGACAGUUUGGGGUACUAUGAAUAGGAUACUCAUUUCCUUCCAAAUCUAAUCUAUAUCUGGAACGGUCACUAGGUGUCAACAGAGGAUUGAGCAUCA
B4: 46328274_46342260_651_CDS_ENSG00000139218_ENST00000369367|human|control|control (ssRNA)
RNA: GGGAGUUCUACAGUCCGACGAUCGUAUAAAGAGUUUCUAUGUAUCCACUUCAAGUCACAAACUUUUGCACUUAAUAGAUCUUCUCUUACGAUGGCUUUUCUUCUUAUACAGCUUUUAGAAUUUUCAUGACAGGAGACCUGUUUCAACAGAGGAUUGAGCAUCA
B5: chr11:118894041:118894042:+_ENSG00000196655_ENST00000359005|hu_hu|FALSE|FALSE (ssRNA)
RNA: GGGAGUUCUACAGUCCGACGAUCAGGUUCAGCCUAUGACCCAGGUCCAAAAGUUCCAGCCUUCUCUGCCACCUCCAGAGCUAGCUUCAGGUUCUGGUCAAAGAGCUCACACCUGAUAGGCAUUUCUGUCAGUGUCUGGUAGCACAACAGAGGAUUGAGCAUCA
B6: 96291751_96294445_1877_CDS_ENSG00000048828_ENST00000277165|human|control|control (ssRNA)
RNA: GGGAGUUCUACAGUCCGACGAUCGAUUUCACCCUUCGUCAGGACAUGGAAGAUGUAGGGGUACAUCAGCCCCUUCUUGUGCCUGUGCUCGGCCACUCUCAGCACCUCAGGUGCGACGGGGGGCAGGGGAGGUGUGGUGAUGUCCAACAGAGGAUUGAGCAUCA
B7: 94973500_94973620_1963_3pUTR_ENSMUSG00000021687_ENSMUST00000022197|mouse|control|control (ssRNA)
RNA: GGGAGUUCUACAGUCCGACGAUCCACCCAAACUUUUGCUGACCUUGUUCCUUCGUUAUUAAUAGAGGGGGGAAAAGAAAGAAACAUGGUGUCAUGUCCAAUGUAUAGUCUGAAUCUCUACUGACUCCUGGAAGAACUUCUGUGCAACAGAGGAUUGAGCAUCA
B8: chr1:17152557:17152558:+_ENSMUSG00000025777_ENSMUST00000026879|mus_mus|motif|central (ssRNA)
RNA: GGGAGUUCUACAGUCCGACGAUCUUCUCAUCAAAUUAUCCACUACCAUCCAUAAGCCAUAUUUACUUGAGACAUUCAUCGGUAUAUUACUUGUAUGCAUAAAUAGGGCUGUCGAGGCCAAGGUUCCCAGGACUGAAGACAAUCCAACAGAGGAUUGAGCAUCA
B9: chr3:47957716:47957717:-_ENSG00000047849_ENST00000395734|hu_hu|FALSE|FALSE (ssRNA)
RNA: GGGAGUUCUACAGUCCGACGAUCAUCCUCAGUCAGGGCCACCUCCAUUUCUGGAGGCAGACAUACGUUCUUGAUGAGAACUACUUCUGUUUCUGGAGGUGGAGUCACAUCCUUGCCCAGAGCCAUUUCUGUUUCUGAUAGUGGCAACAGAGGAUUGAGCAUCA
B10: chr16:94664741:94664742:+_ENSMUSG00000040785_ENSMUST00000117648|mus_hu|mus_mus_mus_hu_False|1_108 (ssRNA)
RNA: GGGAGUUCUACAGUCCGACGAUCUGGCAUGGAUCUUGGUAGCUGAUAUUCAGGAGAAAGGCUGGCCAAGGGUGUAUAUAUGCUGGUGUACUGGGGCAAACCUGGUAACACGUUUAUGUAUGCUGGCGGUGUCUGGGUGCCAAACAACAGAGGAUUGAGCAUCA
B11: chr9:2804355:2804356:-_ENSG00000080608_ENST00000397885|hu_hu|FALSE|FALSE (ssRNA)
RNA: GGGAGUUCUACAGUCCGACGAUCUUCCAUCUUGCUCUUAACUCUUUCCACCUAUGUGCUCAGUUUUUCAAGUAGAAUUUCUAUUCCUUUGCUGGUGCUUUUGGUUUUUUCCAAUGUAGGAAUCAAGCUUUUCAGUGCAGCUUUCAACAGAGGAUUGAGCAUCA
B12: chr9:54997157:54997158:+_ENSMUSG00000032307_ENSMUST00000059555|mus_hu|FALSE|FALSE (ssRNA)
RNA: GGGAGUUCUACAGUCCGACGAUCGUGGCGCUUCCUUUGUAACCGACUCCAGCGGCAGGAGGCGGCGGCCCCGCGGCUUAAAAGGGCAACAGCGACGCCGCCCCCGCUACCGCCUGGGAAAGGGCUGCCCCCACCCCGCCCCCGCAACAGAGGAUUGAGCAUCA
B13: chr8:97196980:97196981:+_ENSMUSG00000031776_ENSMUST00000034228|mus_mus|motif|central (ssRNA)
RNA: GGGAGUUCUACAGUCCGACGAUCGCCUGCUGGUCUGGUGAACUCAUGUCAAUCACACCGGUUGUGCGAAGGUGGGACCGGGUGCCGCAGGUUGUUCUGGGAAGCUGGCGUAGAAGAUGACUUACACAGAGAAGUCACAACCAACAACAGAGGAUUGAGCAUCA
B14: 63669693_63669813_2693_CDS_ENSMUSG00000028364_ENSMUST00000107372|mouse|control|control (ssRNA)
RNA: GGGAGUUCUACAGUCCGACGAUCGCGGGAGAUGAGGGACACCUCAUACUCCGUGUCAGGUCUCAGGUUCCCGAUGGAGUACUGGUUGUCUUCGUGUGUGAGGUCGAUGGUGGUACGGUCUCCAGGUACAUCCUUGAUGCCAUACAACAGAGGAUUGAGCAUCA

target: T1, UNK ZnF1-3; assay: nsRBNS (natural sequence RNA bind-n-seq); RBNS binding buffer (assumed for nsRBNS): 25 mM Tris pH 7.5, 150 mM KCl, 3 mM MgCl2, 0.01% Triton X-100, 500 ug/ml BSA, 20 U/ml SUPERase-In, 4 C; UNK is unkempt and MSI1 is Musashi-1; names of the RNAs are library labels; protein concentration not given here; high values mean tight binding

Binder | binding signal
B1 | 1.01 enrichment R
B2 | 0.766 enrichment R
B3 | 0.781 enrichment R
B4 | 0.624 enrichment R
B5 | 0.615 enrichment R
B6 | 0.869 enrichment R
B7 | 1.31 enrichment R
B8 | 1.43 enrichment R
B9 | 0.658 enrichment R
B10 | 1.04 enrichment R
B11 | 0.306 enrichment R
B12 | 0.731 enrichment R
B13 | 0.993 enrichment R
B14 | 0.523 enrichment R
